# Source: paper PMC4336329 (PLoS ONE, 2015)
# Among all 310,000 compounds or so, about 14,000 (4.5%) showed an effect of 50% or more. The effect is printed as a negative number. The list shows a part of the results.
# Target: human ether-à-go-go-related gene (hERG) potassium channel (human, UniProt Q12809)
# Experiment: primary screen, population patch clamp on CHO cells stably expressing hERG
# 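Note: peak tail current of the secondary pulse compared with the same well before compound.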
# Chain of human ether-à-go-go-related gene (hERG) potassium channel (Q12809 whole entry, looked up): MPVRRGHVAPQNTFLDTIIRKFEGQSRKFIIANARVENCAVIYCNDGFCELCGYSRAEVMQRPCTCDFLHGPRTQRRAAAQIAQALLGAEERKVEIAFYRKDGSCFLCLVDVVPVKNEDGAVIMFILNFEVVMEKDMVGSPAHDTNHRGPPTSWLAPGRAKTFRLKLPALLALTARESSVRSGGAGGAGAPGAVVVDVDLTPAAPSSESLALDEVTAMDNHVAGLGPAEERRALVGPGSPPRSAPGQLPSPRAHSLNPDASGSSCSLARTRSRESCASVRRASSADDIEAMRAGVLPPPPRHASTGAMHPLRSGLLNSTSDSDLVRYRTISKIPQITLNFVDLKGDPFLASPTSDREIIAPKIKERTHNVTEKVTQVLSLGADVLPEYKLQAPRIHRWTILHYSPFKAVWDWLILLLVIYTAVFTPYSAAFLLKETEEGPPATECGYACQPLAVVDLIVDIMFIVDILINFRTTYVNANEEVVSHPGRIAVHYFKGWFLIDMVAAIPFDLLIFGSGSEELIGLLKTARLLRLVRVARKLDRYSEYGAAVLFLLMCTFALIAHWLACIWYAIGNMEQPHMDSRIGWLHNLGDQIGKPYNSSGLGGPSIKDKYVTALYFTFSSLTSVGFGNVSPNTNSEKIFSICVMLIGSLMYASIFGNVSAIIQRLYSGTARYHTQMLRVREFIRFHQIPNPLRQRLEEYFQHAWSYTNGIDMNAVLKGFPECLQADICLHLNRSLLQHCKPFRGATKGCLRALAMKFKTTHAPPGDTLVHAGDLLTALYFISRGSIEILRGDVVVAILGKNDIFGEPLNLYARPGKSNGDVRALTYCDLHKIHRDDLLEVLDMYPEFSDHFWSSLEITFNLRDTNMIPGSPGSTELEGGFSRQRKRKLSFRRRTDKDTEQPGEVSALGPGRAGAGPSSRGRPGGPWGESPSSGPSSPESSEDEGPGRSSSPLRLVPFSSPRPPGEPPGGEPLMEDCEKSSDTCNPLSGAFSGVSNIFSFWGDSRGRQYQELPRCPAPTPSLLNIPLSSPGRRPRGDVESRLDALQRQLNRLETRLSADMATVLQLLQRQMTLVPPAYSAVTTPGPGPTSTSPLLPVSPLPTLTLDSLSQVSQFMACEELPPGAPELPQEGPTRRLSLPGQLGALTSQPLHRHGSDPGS
row,Compound,"hERG current change (%, negative = inhibition) at 10uM [%]"
1,O=C(/C=C/c1cccs1)NNC(=O)c1ccccc1,9.29
2,COc1ccccc1OCC(=O)Nc1cccc(C(=O)N2CCOCC2)c1,-0.619
3,Cc1ccc(S(=O)(=O)N2CCN(C(C(=O)Nc3ccc(F)cc3)c3ccccc3)CC2)cc1 (stereo not shown),-3.54
4,Cc1cc(C(=O)CSc2nnc(-c3ccncc3)n2-c2ccccc2)c(C)n1C,-26.6
5,O=C1c2cccc([N+](=O)[O-])c2C(=O)N1C1CCCCC1,12.7
6,Cc1ccc2oc(-c3cc(NC(=O)c4ncn[nH]4)ccc3O)nc2c1,20.3
7,Cc1cc(SCC(=O)c2cc(C)n(C)c2C)nc2ccccc12,10.9
8,COc1ccccc1C1CCN(Cc2c(C)[nH]c3ccccc23)CC1,-64.4
9,COCC1CCN(Cc2nc(-c3cccs3)no2)C1 (stereo not shown),-0.482
10,CC(C)CCNC(=O)C(c1ccc(O)cc1)N(Cc1cccs1)C(=O)C1COc2ccccc2O1 (stereo not shown),5.53
11,Cc1ccsc1C(=O)Nc1ccc(S(=O)(=O)N2CCOCC2)cc1,0.841
12,COc1ccccc1NC(=O)Nc1c(C)nn(C)c1C,9.61
13,COc1ccc([N+](=O)[O-])cc1N(CC(=O)N(C)C)S(C)(=O)=O,17.3
14,COc1ccc(CCNc2nc(C)cc(C)n2)cc1OC.Cl,17.4
15,CCOC(=O)c1ccc(CSC(=N)N)o1,17.2
16,Cc1cc(C)nc(CCNC(=O)C2CCC(=O)N(Cc3ccccc3F)C2)n1 (stereo not shown),15.7
17,Cl.N=c1n(CCO)c2ccccc2n1Cc1ccccc1,-25.1
18,Cc1cccc(C)c1NC(=O)C(=O)NCC1CCCN1S(=O)(=O)c1ccccc1 (stereo not shown),-24.3
19,CCN(CC)C(=O)CSc1nc2ccccc2c(=O)n1CC1CCCCC1,-61
20,COC(=O)C1=C(c2ccc(-c3ccccc3)c(F)c2)C[C@@H]2CC[C@H]1N2C(=O)N1CCC(O)CC1,-9.71
21,O=C(CCC1COc2ccccc2O1)NC1CCCCC1 (stereo not shown),-8.97
22,Cc1onc(-c2c(F)cccc2Cl)c1C(=O)OCn1nnc2ccccc2c1=O,1.82
23,COc1ccc(NC(=O)COC(=O)Cn2c(C)nc3ccccc32)cc1OC,13.3
24,COc1ccc2c(c1OC)C(=O)N(c1nc(SC)n[nH]1)C2=O,18.3
25,Cc1cccc(NC(=S)NNC(=O)c2ccco2)c1,6.66
26,CCOc1c2ccc(C(=O)NCc3ccc(C)cc3)cc2nn1CCOC,9.13
27,CCCn1c(C(O)c2cc(OC)ccc2OC)nc2ccccc21 (stereo not shown),-2.45
28,COc1cc(NC(=O)COC(=O)CNC(=O)C23CC4CC(CC(C4)C2)C3)cc(OC)c1,-6.11

row,Compound,"hERG current change (%, negative = inhibition) at 10uM [%]"
1,Brc1ccc(OCCOCCOc2cccc3cccnc23)cc1,-6.05
2,CN(C)Cc1c(C(=O)N/N=C/c2cccnc2)nnn1-c1nonc1N,12.3
3,CCCCSc1nc(C)[nH]c1[N+](=O)[O-],12.4
4,O=C(CNC(=O)c1ccc(Cl)cc1)OCn1nnc2ccccc2c1=O,9.92
5,Clc1cccc(CNCCc2c[nH]c3ccccc23)c1.O=C(O)C(=O)O,-14
6,CCCc1cc(=O)n2[nH]c(C)nc2n1,8.13
7,Cc1ccc(NC(=O)N2CCC(C(N)=O)CC2)cc1,5.62
8,COCCn1c(SCC(=O)NCCc2ccccc2)nc2c([nH]c3ccccc32)c1=O,12.3
9,COc1ccccc1NC(=O)NC1(C(=O)N2CCC(C)CC2)CCCCC1,18.3
10,O=[N+]([O-])c1ccc(-c2nn(-c3ccccc3)cc2/C=N/n2c(-c3cccs3)n[nH]c2=S)cc1,20.3
11,CCOC(=O)C1CSC(CC(=O)Nc2ccc(OCC)cc2)C(=O)N1 (stereo not shown),-5.69
12,O=C1CC(C(=O)N2CCc3ccccc32)CN1c1ccc(F)cc1 (stereo not shown),-55.3
13,CCOC(=O)C1=C(C)Nc2[nH]c(=O)[nH]c(=O)c2C1c1cccs1 (stereo not shown),-3.78
14,NS(=O)(=O)c1ccc(CCNC(=O)Cc2ccc(S(=O)(=O)N3CCCC3)s2)cc1,29.9
15,COc1ccc(-n2c(=O)cc(N3CCN(c4ccccc4F)CC3)[nH]c2=O)cc1,-5.05
16,COc1ccccc1CNC(=O)c1ccc2c(=O)n3c(nc2c1)CCCCC3,-21.5
17,O=c1[nH]c(CN2CCN(Cc3ccccc3)CC2)nc2scc(-c3ccccc3)c12,-37.5
18,CC(=O)Nc1ccc(S(=O)(=O)NNC(=O)COc2cccc3ccccc23)cc1,-0.107
19,CNC[C@@H](CC1CCCCC1)NC[C@H](CC(C)C)NCCc1cccc(C(F)(F)F)c1,-6.97
20,COc1cc([C@@H]2CC=C(C(=O)O)[C@H](c3ccc(Cl)cc3)N2S(=O)(=O)c2ccc(C)cc2)cc(OC)c1OC,-0.179
21,O=C(/C=C/c1cccc([N+](=O)[O-])c1)N1CCN(Cc2ccccc2)CC1,-47.5
22,CCCOC(=O)c1ccc(NC(=O)c2nc3nc(C)cc(C)n3n2)cc1,0.372
23,O=C(c1cc(COc2ccc(F)cc2Cl)on1)N1CCCCCCC1,0.909
24,CC(=O)C(C(C)=O)C(NC(=O)c1cccnc1)(C(F)(F)F)C(F)(F)F,1.66
25,O=C(NC1CCCCC1)C1CCCN1C(=O)Nc1ccccc1 (stereo not shown),16.7
26,Cc1ccc(S(=O)(=O)Oc2ccc(/C=C3/N=C(c4ccccc4)OC3=O)cc2)cc1,-1.71
27,O=C(OCC1OC(n2cc(Br)c(=O)[nH]c2=O)C(Br)C1O)c1ccccc1 (stereo not shown),8.3
